# Results published in patent US20140004122A1, “METHODS FOR TREATING OR PREVENTING CHOLESTEROL RELATED DISORDERS” (AMGEN INC., priority 2011, published 2014).
# B1: 11F1: anti-PCSK9 antibody; light/heavy variable region SEQ ID NO 465/463 (antibody, listed as Homo sapiens, V domains shown)
# VH: EVQLVESGGGLVQPGGSLRLSCAASGFTFSNYWMSWVRQAPGKGLEWVASIKQDGSEKYYVDSVKGRFAISRDNAKNSLFLQMNSLRAEDTAVYYCARDLVLMVYDIDYYYYGMDVWGQGTTVTVSS
# VL: [about 100 residues not spelt out]YCMQTLQTPLTFGGGTKVEIK
# Assays:
# [1] = target: PCSK9 (Homo sapiens, UniProt Q8NBP7); experiment: 11F1 binding specificity competition assay; parameters: purchased R&D Systems; conditions: 0.4 μg/mL 11F1; 0 to 20 μg/mL competitor
# Sequence of PCSK9 (Q8NBP7 153-692): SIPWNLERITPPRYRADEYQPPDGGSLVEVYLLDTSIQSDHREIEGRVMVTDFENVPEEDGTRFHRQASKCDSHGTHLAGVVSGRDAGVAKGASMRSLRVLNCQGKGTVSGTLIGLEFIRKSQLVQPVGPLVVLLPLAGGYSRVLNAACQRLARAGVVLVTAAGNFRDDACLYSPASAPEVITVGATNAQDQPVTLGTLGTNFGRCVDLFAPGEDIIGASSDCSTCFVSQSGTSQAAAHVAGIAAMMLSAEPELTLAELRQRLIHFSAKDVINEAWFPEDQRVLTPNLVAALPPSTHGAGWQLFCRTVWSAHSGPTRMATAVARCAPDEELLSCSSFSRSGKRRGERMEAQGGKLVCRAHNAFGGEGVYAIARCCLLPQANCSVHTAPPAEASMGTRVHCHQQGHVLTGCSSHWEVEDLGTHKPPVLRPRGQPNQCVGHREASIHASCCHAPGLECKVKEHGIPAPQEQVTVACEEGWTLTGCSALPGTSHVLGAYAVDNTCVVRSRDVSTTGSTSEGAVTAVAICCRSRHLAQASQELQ
# Method: Biotinylated PCSK9, diluted in buffer A (25 mM Tris, 150 mM NaCl, 0.1% BSA, 0.05% tween, pH 7.5) was bound to neutravidin coated 96 well plates at a concentration of 0.2 μg/mL, for one hour incubation at room temperature. Separately, 0.4 μg/mL of 11F1 was incubated for one hour at room temperature with various concentrations (ranging from 0 to 20 μg/mL) of either PCSK1, PCSK2, PCSK7, PCSK9 or furin (R&D Systems, Minneapolis, Minn.) (diluted in buffer A w/o tween). Furin inhibitor, at 4.5 μg/mL, was included with all furin containing reactions. The PCSK9 coated streptavidin plate was washed with buffer A and the antibody/proprotein convertase mixture was added to the plate and incubated at room temperature for one hour. After washing, bound antibody was detected by incubation with goat-α-human Fc-HRP (160 ng/mL, diluted in buffer A) (Jackson Laboratories, Bar Harbor, Me.) followed by TMB substrate. The reaction was stopped with 1 N HCl and the absorbance was read at a wavelength of 450 nm on a Spectramax Plus 384 spectrophotometer (Molecular Devices Inc., Sunnyvale, Calif.).
# This assay relied on the ability of proprotein convertase in solution to compete for the binding of 11F1 to plate-captured PCSK9. […] All results were expressed as the mean OD450 value±standard deviation versus concentration of the proprotein convertase. […]
# [2] = Pharmacokinetics in mice expressing human PCSK9 by AAV; type: in vivo, mouse; conditions: intravenous dose of 30 mg/kg
# Method: Serum concentrations of antibody were determined using a sandwich ELISA assay. Polyclonal goat anti-human Fc IgG and an HRP-labeled goat anti-human IgG Fcγ polyclonal reagent (both from Jackson ImmunoResearch Laboratories Inc, West Grove, Pa.) were used as the capture and the detection antibody, respectively. A 3,3′,5,5′ tetramethylbenzidine (TMB) substrate solution reacted with peroxide, and in the presence of horse radish peroxidase (HRP), created a colorimetric signal that was proportional to the amount of the respective anti-PCSK9 antibody bound by the capture reagent. The intensity of the color (optical density, OD) was measured at 450 nm minus 650 nm using a microplate reader (Spectra Max Plus 384). Data was analyzed using Watson version 7.0.0.01 (Thermo Scientific, Waltham, Mass.) data reduction package with a Logistic (auto-estimate) regression of separately prepared standard curves. The lower limit of quantification (LLOQ) for the assay was ng/mL. 34.4.
# Non-compartmental analysis (NCA) was performed on serum concentrations using the pre-determined nominal time points for each subject using WinNonlin Enterprise, version 5.1.1 (Pharsight, St. Louis, Mo.). […] NCA parameters reported include: apparent half-life (t1/2), area under the serum concentration-time curve from time zero to the last measured concentration (AUC0-t), and apparent serum clearance (CL0-t). […]
# [3] = Pharmacokinetics in cynomolgus monkeys; type: in vivo, cynomolgus monkey; conditions: 0.5 mg/kg single SC
# Method: Antibody concentrations in serum were determined using an enzyme-linked immunosorbent assay (ELISA) with an assay range of 34.4 to 3000 ng/mL (34.4 ng/mL being the lower limit of quantitation [LLOQ]).
# Non-compartmental analysis (NCA) was performed on the serum concentrations using the pre-determined nominal time points for each subject using Watson® LIMS, version 7.0.0.01 (Thermo Scientific, Waltham, Mass.). Data points for estimating the terminal elimination rate constants and half-lives were chosen by visual inspection of the concentration-time profile and best linear fit (typically from 360 h until the antibody concentrations dropped below the lower limit of quantitation).
# NCA parameters reported include: terminal half-life (t1/2,z), the maximum serum concentration (Cmax), area under the serum concentration-time curve from time zero to infinity (AUC0-inf), and apparent serum clearance (CL/F). AUC0-inf was calculated using the linear log-linear trapezoidal method. All parameters were all reported to three significant figures, except for half-life which was reported to two significant figures.
molecule,measurement,setting,value
B1,effect of pre-incubation with PCSK9 in solution on 11F1 binding to plate-captured PCSK9 (OD450),[1],dose dependently and robustly reduced the amount of 11F1 binding to plate-captured PCSK9
same,"pharmacokinetic behavior (AUC0-t, CL0-t, apparent half-lives)",[2],very similar pharmacokinetic behavior
same,CL/F as percent of 21B12 CL/F,[3],approximately 15%
same,half-life,[3],approximately 200 h
